About 540 (0.36%) of roughly 150,000 compounds showed an effect of 50% or more. This is one part of the list.
test system: Plasmodium falciparum; experiment: Primary screen in NF54 nanoGlo assay, in single point, at 2uM, 72h; a lower Z score goes with more inhibition; format: functional, Erythrocyte; details: timepoint 72 hour

Compound | % Inhibition [%] | Z score
CC(C)c1nc(CCNC(=O)N2CC[C@H](N3CCCCC3)C2)no1 | -1 | 0.17
CCO[C@H]1COC[C@@H]1NC(=O)Nc1ccc(Cl)cc1 | -5 | 0.97
COc1ccc(Br)cc1C(=O)Nc1c(-n2cnnc2)nn(C)c1C | -4 | 0.55
O=C1C2CCCCN2C(=O)N1CC(O)COc1ccc(F)cc1 (centres undefined) | -5 | 0.77
CC(C)c1cc(C(=O)NCc2cncn2C2CC2)on1 | -2 | 0.36
Cc1cccc(N2CCN(CCCNc3ncnc4onc(-c5ccc(F)cc5)c34)C[C@@H]2C)c1 | -16 | 3.04
O=C(Cc1ccccc1F)N[C@H]1CCN(c2ccc(=O)n(CCOc3ccccc3)n2)C1 | -14 | 1.87
Cn1cc(C(=O)NCC[C@H]2CCc3ccccc32)[nH]c1=O | -6 | 1.01
O=C(N[C@H]1CCc2ccccc21)c1n[nH]c2c1CCCC2 | 25 | -2.87
CNc1snc(C)c1C(=O)N1CCC[C@H](NS(C)(=O)=O)C1 | 1 | -0.22
COCCN1C(=O)CC(CC(=O)N(Cc2ccccc2)C[C@@H]2CCC(=O)N2)(c2ccccc2F)C1=O (some centres undefined) | 0 | -0.02
O=C(N1CCC[C@H]1c1csc(-c2ccoc2)n1)C(F)(F)F | -11 | 1.25
O=C1CN(C(=O)c2ccc(OCc3ccccc3)cc2)c2ccccc2N1 | 7 | -1.3
C=C(C)CS(=O)(=O)N1CCC(CCCn2ccnc2)CC1 | -5 | 0.57
CN(CC1(CO)CC1)C(=O)c1nc(-c2ccccc2)ns1 | -5 | 1.03
Cc1nn(Cc2ccccc2)c(C)c1CNC(=O)CCn1cnc2c(C)cccc2c1=O | -4 | 0.6
Cc1nccn1-c1cc(N2CCN(CC(C)C)CC2)nc2ccnn12 | -19 | 2.18
COCCN(C)C[C@H]1C[C@H](CO)CN(Cc2ccc3cccc(F)c3n2)C1 | 0 | -0.06
COc1cc2c(cc1CN1CCN3C(=O)CNC(=O)[C@@H]3C1)OCCCO2 | -22 | 1.94
Cc1cccc(-c2nc3cc(C)ccc3cc2CN2C[C@@H]3C(=O)NC(=O)[C@@H]3C2)c1 | -5 | 1.03
COCCN(CC(=O)N(C)c1ccccc1F)C(=O)OC(C)(C)C | -11 | 2.05

Compound | % Inhibition [%] | Z score
NC(=O)C12CC(CN1C(=O)c1cnn(C3CC3)c1)C2 | 23 | -2.7
Clc1ccc([C@@H]2CN(c3ccnc4ccccc34)CCO2)cc1 | -19 | 1.74
c1ccc(-c2nc(Oc3cccc4cccnc34)c3ccccc3n2)cc1 | -6 | 1.08
CC(C)NC(=O)NC(c1cccs1)c1cccs1 | -1 | 0.21
CO[C@H]1COCC[C@@H]1NC(=O)Cc1ccc(Cl)c(Cl)c1 | -12 | 2.16
Cc1ccc(CN2C(=O)N[C@@](C)(CC(C)C)C2=O)c(C)n1 | 0 | -0.02
CC(C)(C)[C@H](NCCN1C(=O)CCC1=O)c1ccccc1 | -7 | 0.87
CC1(C)Cc2cccc(NC(=O)CCc3nc(C4CCCC4)no3)c2O1 | -11 | 1.47
O=c1ccc(F)cn1CCc1ccc(F)c(F)c1 | -11 | 2.07
Fc1ccc2c(c1)C(c1ccccc1)=NNC(c1ccccc1)=N2 | -10 | 1.13
Cc1cc(CNC(=O)NCCc2ncc(C)s2)n(C)n1 | -12 | 1.99
CCCOc1ccc([C@@H]2c3c(-c4ccc(C)cc4)nn(C)c3C(=O)N2Cc2ccccc2)cc1 | -5 | 0.65
C[C@](O)(CCc1ccccc1)C(=O)NCc1ncccc1O | 8 | -1.01
CC(C)Cc1cnc(NC(=O)N2CCCC2)s1 | -12 | 1.21
NC(=O)c1ccccc1NC(=O)CCn1nc2ccccn2c1=O | 2 | -0.37
CN(Cc1ccsc1)C(=O)Nc1ccc2oc(C3CC3)nc2c1 | 3 | -0.53
O=C(Cc1cccc(F)c1F)N1CC[C@@]2(CCCN(CC3CC3)C2=O)C1 | 3 | -0.38
CC(=O)O[C@H]1C2CCC1C([N+]1(C)CCCCC1)CC2 (some centres undefined) | -5 | 0.64
c1cc2c(cc1-c1noc(-c3cc4n(n3)CCCC4)n1)CCC2 | -12 | 1.14
c1nc2cc(-c3noc(-c4cn(CCC5CCCCC5)nn4)n3)ccc2[nH]1 | -15 | 1.95
Cc1cnn([C@@H](C)CNC(=O)c2c[nH]nc2-n2cnnn2)c1 | -4 | 0.61

Reference: ChEMBL document CHEMBL4888484, “Replenishing the malaria drug discovery pipeline: Screening and hit evaluation of the MMV Hit Generation Library 1 (HGL1) against asexual blood stage Plasmodium falciparum ,using a nano luciferase reporter read-out” (2022)
